Our source for the switch fluorescence ratio values is the supplement of paper PMC10126150.

Values marked as one replicate rest on one cluster of the flow cell; about a third of the high ones do not repeat.

This series deals with ATP. Kind of series: switch fluorescence ratio, 500 uM ATP over buffer (Cy3 cluster intensity, sum of 5 cycles each) (fold (ratio)); higher = stronger signal-on switching upon ATP binding; sequences stand for … in TCGTCGGCAGCGTCAGATGTGTATAAGAGACAGTTTTTTTTTTTTTTTTTTTTTTTTT…TC. Particulars: aptamer strand: ATP DNA aptamer (quencher-CACCTGGGGGAGTATTGCGGAGGAAGG + anchor), 100 nM annealed; ATP concentration: 500 uM; one replicate. The gist of the method: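 Exposure to 500 uM ATP lasted 15 min at 22 °C before imaging, and a selection-buffer image was taken beforehand, for Cy3-labelled switching-strand clusters on a modified Illumina MiSeq flow-cell annealed to 100 nM quencher-labelled ATP aptamer. Five buffer/ATP cycles were run with NaOH stripping and re-annealing between them. The fluorescence ratio per cluster is summed target-cycle over summed buffer-cycle Cy3 intensity, averaged per switch-domain sequence. Clusters outside 100-1000 RFU were excluded.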

For TAATAACATA, the switch fluorescence ratio amounted to 0.997.

For AGCTGAGGAT, the switch fluorescence ratio turned out to be 0.947.

In the case of ACTCTCCTGT, the switch fluorescence ratio worked out at 1.06.

Consider ACTGACAGTT, for which the switch fluorescence ratio was found to be 1.13.

For TCGTTTCTT, the switch fluorescence ratio is 0.988.

As for TCCGAACAGT, the switch fluorescence ratio came out at 1.12.

Consider TACATTTGGT, for which the switch fluorescence ratio was 1.01.

Take TCTTCAAGGG: the switch fluorescence ratio amounted to 1.03.

For the sequence GCCTTTACA, the switch fluorescence ratio worked out at 0.963.

Regarding GTTATGTGAA, the switch fluorescence ratio amounted to 1.01.

CCGGATAATA: the switch fluorescence ratio came out at 1.13.

Regarding GACTGGGATT, the switch fluorescence ratio amounted to 0.98.

Turning to CGGAAATAGG, the switch fluorescence ratio amounted to 0.96.

CAGCAATAGA: the switch fluorescence ratio was determined as 2.08.

For TAGGGCCGG, the switch fluorescence ratio came to 0.921.

As to CACATGCGGG, the switch fluorescence ratio was found to be 0.99.

Regarding TGCGATCTCT, the switch fluorescence ratio stood at 1.1.

In the case of GAGCAAGGAT, the switch fluorescence ratio amounted to 1.41.

With ACCGCAGAAA, the switch fluorescence ratio is 2.39.

As for CTTAGGGGG, the switch fluorescence ratio stood at 1.03.

Take CGAGCTGGAC: the switch fluorescence ratio stood at 1.91.

Take AAGTCAGTCA: the switch fluorescence ratio was 0.941.

Turning to TTAGTGCACG, the switch fluorescence ratio was determined as 0.981.

On to ACAAAACGGC, for which the switch fluorescence ratio stood at 1.26.

For TGACCACTTG, the switch fluorescence ratio came to 1.03.

Regarding ACTCGTGCAA, the switch fluorescence ratio worked out at 4.66.

For the sequence GGTCCAAAGC, the switch fluorescence ratio is 0.975.

Take ATGGCCTCTT: the switch fluorescence ratio amounted to 1.39.

On to CCCGTGCGCG, for which the switch fluorescence ratio stood at 1.01.

With ATCAGCCTTA, the switch fluorescence ratio was 0.986.

Consider TCTAAATG, for which the switch fluorescence ratio was 1.

AGATTCGGAC: the switch fluorescence ratio amounted to 1.02.

For TTATGATTCG, the switch fluorescence ratio was found to be 0.98.

Consider TGAACTGGGG, for which the switch fluorescence ratio was 0.967.

With CCTCGGGGTG, the switch fluorescence ratio stood at 1.17.

Take AGAATACAAC: the switch fluorescence ratio worked out at 1.07.

Take ATAGACTCGC: the switch fluorescence ratio amounted to 0.991.

Consider TCTAGCAATT, for which the switch fluorescence ratio was found to be 2.11.

Regarding TAGATCTGGT, the switch fluorescence ratio came out at 0.985.

Turning to TTGAGATAGC, the switch fluorescence ratio stood at 1.01.

On to TACAGACTTG, for which the switch fluorescence ratio was determined as 1.03.

As to TAGAAACGTT, the switch fluorescence ratio was 1.01.

In the case of TGATTAAAGC, the switch fluorescence ratio turned out to be 1.01.

As for GGCACTACTC, the switch fluorescence ratio turned out to be 3.37.

For CACATCACGG, the switch fluorescence ratio worked out at 1.75.

As to CAGCACAAAT, the switch fluorescence ratio came out at 1.04.

TAGTACCAGA: the switch fluorescence ratio amounted to 1.01.

As for ATGGATTGTC, the switch fluorescence ratio was 0.886.

In the case of AGGAAAGTA, the switch fluorescence ratio was 1.01.

TGCAGCAACT: the switch fluorescence ratio turned out to be 1.69.

Take AATTCTCGGC: the switch fluorescence ratio was 0.987.

As to TAGGATGGC, the switch fluorescence ratio is 0.996.

On to CGTTCAAGTG, for which the switch fluorescence ratio turned out to be 0.965.

Take CACCCTAATT: the switch fluorescence ratio is 1.28.

TTCCCATGCC: the switch fluorescence ratio worked out at 1.06.

As to GTTCAGGCAG, the switch fluorescence ratio came to 0.986.

As to TCAAGAGTAT, the switch fluorescence ratio turned out to be 1.

Consider ACAATGATAC, for which the switch fluorescence ratio worked out at 1.24.

Consider GCGGGACGAA, for which the switch fluorescence ratio was 1.

As to ACGTAGAGGG, the switch fluorescence ratio is 1.05.

As to TCAAAAGTAT, the switch fluorescence ratio is 0.968.

Consider GTTTGACGAG, for which the switch fluorescence ratio amounted to 1.

As to ACAGAAATAA, the switch fluorescence ratio came out at 0.989.

As to ACACGCCGGG, the switch fluorescence ratio was 1.22.

Regarding GTGACCAAAT, the switch fluorescence ratio was 1.03.

For TGCTTTCGTA, the switch fluorescence ratio turned out to be 0.991.

As for TTCAATCG, the switch fluorescence ratio stood at 0.963.
